Measurements as given in PubChem BioAssay AID588342 (National Center for Advancing Translational Sciences (NCATS), 2011).
About 25,000 (6.9%) of roughly 360,000 compounds were called active. Inconclusive means that the source gave no clear call. Such entries were picked first, then a sample of the others. The call rests on the fitted dose curve; in most records, active means well fitted inhibition curve with a large enough effect; inconclusive means small, poorly fitted or top-dose-only effect; inactive means flat fitted curve, though single readings scatter. Potencies of inconclusive entries are doubtful fits and often do not repeat.

Target: Luciferin 4-monooxygenase (Photinus pyralis) (UniProt P08659)
Sequence of UniProt P08659 (P08659 whole entry, looked up): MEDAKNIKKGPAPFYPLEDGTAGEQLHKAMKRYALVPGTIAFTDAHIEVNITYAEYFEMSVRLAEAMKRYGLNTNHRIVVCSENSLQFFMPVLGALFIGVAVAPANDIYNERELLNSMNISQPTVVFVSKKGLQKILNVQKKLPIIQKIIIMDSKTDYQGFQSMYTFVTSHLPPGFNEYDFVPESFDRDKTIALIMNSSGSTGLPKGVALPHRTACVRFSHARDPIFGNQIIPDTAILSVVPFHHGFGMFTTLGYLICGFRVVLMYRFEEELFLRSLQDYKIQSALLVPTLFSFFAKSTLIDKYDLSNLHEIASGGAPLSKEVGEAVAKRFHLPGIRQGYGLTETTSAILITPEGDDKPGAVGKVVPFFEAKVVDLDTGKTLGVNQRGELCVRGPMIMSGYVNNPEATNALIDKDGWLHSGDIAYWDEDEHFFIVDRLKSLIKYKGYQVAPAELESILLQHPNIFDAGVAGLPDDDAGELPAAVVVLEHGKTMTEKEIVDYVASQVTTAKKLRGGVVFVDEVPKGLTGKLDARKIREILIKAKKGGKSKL
Assay: qHTS profiling assay for firefly luciferase inhibitor/activator using purifed enzyme and Km concentrations of substrates (counterscreen for miR-21 project); further: nearly all actives have a fitted effect of over 55% in size;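 on activity change, negative = inhibition: plate controls were vehicle for no effect and reference inhibitor for full effect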
Details: purified FLuc, luminescence inhibition; series mostly up to 57.5 µM; activity change, negative = inhibition: at the top concentration
Outline: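 Purified P. pyralis luciferase, 10 nM final, with Km-level 10 uM D-luciferin and 10 uM ATP in 50 mM Tris acetate pH 7.5, 10 mM Mg acetate, 0.01% Tween-20, 0.05% BSA; 6-point qHTS titration about 60 µM downward; luminescence read.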
Potency means the concentration at half of the fitted maximal effect; tags describe the fitted curve by direction and shape.

Structure (SMILES)	Potency	activity change, negative = inhibition
Nc1ccc(N2CCN(c3ccc(Cl)c(Cl)c3)CC2)cc1	inconclusive: 37.9 µM [inhibitor, partial curve, poor fit]	–
COc1ccc(C(=O)NCCc2csc(-c3ccc(Cl)cc3)n2)cc1	active: 12 µM	–
Cc1cccc(C)c1OCc1cc(C(=O)NC2CCC2)no1	inconclusive: 37.9 µM [inhibitor, partial curve, poor fit]	–
O=C(COc1ccccc1F)Nc1nnc(SCc2cc(=O)n3ccccc3n2)s1	inconclusive: 21.3 µM [inhibitor, partial curve, poor fit]	–
CCCCN(C(=O)c1cc(S(=O)(=O)N2CCOCC2)ccc1Cl)c1c(N)n(CC(C)C)c(=O)[nH]c1=O	–	inactive: 4.04%
COC(=O)c1ccc(NC(=O)CN2CCN(CC#N)CC2)cc1	–	inactive: 1.42%
CCOC(=O)C1(CCc2ccccc2)CCN(C(=O)CCn2cncn2)CC1	inconclusive: 23.9 µM [inhibitor, partial curve]	–
Cc1cc(C)nc(/N=C2\NC(=O)CC(C(=O)O)N2c2ccc(C)c(C)c2)n1 (stereo not given)	inconclusive: 0.0107 µM [inhibitor, partial curve, poor fit]	–
Cc1ccc(/C=C/C(=O)c2ccccc(=O)c2O)c(C)c1	inconclusive: 26.9 µM [inhibitor, partial curve, poor fit]	–
Cc1ccc(C2=CC(c3ccc(Cl)cc3)n3nc(-c4ccc(C)cc4)nc3N2)cc1 (stereo not given)	inconclusive: 10.7 µM [inhibitor, partial curve]	–
Cc1ccc(-n2nc3ccc(N)cc3n2)cc1Cl	active: 0.675 µM	–
O=C(c1cccc(C(F)(F)F)c1)N1CCc2c([nH]c3ccccc23)C1C(F)(F)F (stereo not given)	–	inactive: -0.987%
Cc1cc2c(cc3c(SCc4cccc(F)c4)nnc(C)n32)o1	inconclusive: 37.9 µM [inhibitor, partial curve, poor fit]	–
COC(=O)c1ccc(Cl)cc1NC(=O)NC(C)c1c(-n2cccc2)sc(C)c1C (stereo not given)	–	inactive: -6.38%
O=[N+]([O-])c1ccc(C2CC(c3ccccc3)=Nc3ccccc3S2)cc1 (stereo not given)	inconclusive: 21.3 µM [inhibitor, partial curve]	–
O=c1[nH]cnc2c1oc1ccccc12	inconclusive: 16.9 µM [inhibitor, partial curve]	–
COc1ccc(NC(=O)CCc2nc3cccnc3n2-c2ccccc2)cc1Cl	–	inactive: 1.62%
Cc1ccc(-c2csc(NC(=O)C3=COCCO3)n2)cc1	active: 15.1 µM	–
O=C(Nc1ccc(Br)cc1)N1CCCCCC1	active: 10.7 µM	–
Cc1cc(NCCCn2ccnc2)n2nc(-c3ccc(F)cc3)cc2n1	active: 9.53 µM	–
